PubChem BioAssay AID1468 (National Center for Advancing Translational Sciences (NCATS), 2008)
The whole screen tested about 280,000 compounds, of which about 1,100 (0.39%) were called active. The inconclusive results got no clear call from the source; some entries with a clear call stand among them for comparison. Calls follow the shape of the dose curve; as a rule, active = well fitted inhibition curve with a large enough effect; inconclusive = small, poorly fitted or top-dose-only effect, or effect the other way; inactive = flat fitted curve, though single readings scatter. A potency beside an inconclusive call is a rough fit, not a confirmed value.

Biological target: Microtubule-associated protein tau (Homo sapiens) (UniProt P10636)
Assay: qHTS for Inhibitors of Tau Fibril Formation, Fluorescence Polarization; also: nearly all actives have a fitted effect of over 55% in size
Conditions: K18 P301L tau heparin fibrillization, Alexa594 FP, 6 h; series mostly up to 57.7 µM; activity, negative = inhibition: at the top concentration
How it was run: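 Human tau K18 […] P301L fragment, 15 uM unlabeled plus 0.24 uM Alexa 594-labeled tau (final), with compound and 20 uM heparin in 100 mM sodium acetate pH 7; 6 hr at 37 C, then Alexa 594 FP read.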
% is scaled to controls: 0 for no effect and ±100 for the full control effect; potency is read from the fitted curve at half-maximal effect; tags tell the direction and shape of the fitted curve.

Sequence of UniProt P10636 (P10636 whole entry, looked up): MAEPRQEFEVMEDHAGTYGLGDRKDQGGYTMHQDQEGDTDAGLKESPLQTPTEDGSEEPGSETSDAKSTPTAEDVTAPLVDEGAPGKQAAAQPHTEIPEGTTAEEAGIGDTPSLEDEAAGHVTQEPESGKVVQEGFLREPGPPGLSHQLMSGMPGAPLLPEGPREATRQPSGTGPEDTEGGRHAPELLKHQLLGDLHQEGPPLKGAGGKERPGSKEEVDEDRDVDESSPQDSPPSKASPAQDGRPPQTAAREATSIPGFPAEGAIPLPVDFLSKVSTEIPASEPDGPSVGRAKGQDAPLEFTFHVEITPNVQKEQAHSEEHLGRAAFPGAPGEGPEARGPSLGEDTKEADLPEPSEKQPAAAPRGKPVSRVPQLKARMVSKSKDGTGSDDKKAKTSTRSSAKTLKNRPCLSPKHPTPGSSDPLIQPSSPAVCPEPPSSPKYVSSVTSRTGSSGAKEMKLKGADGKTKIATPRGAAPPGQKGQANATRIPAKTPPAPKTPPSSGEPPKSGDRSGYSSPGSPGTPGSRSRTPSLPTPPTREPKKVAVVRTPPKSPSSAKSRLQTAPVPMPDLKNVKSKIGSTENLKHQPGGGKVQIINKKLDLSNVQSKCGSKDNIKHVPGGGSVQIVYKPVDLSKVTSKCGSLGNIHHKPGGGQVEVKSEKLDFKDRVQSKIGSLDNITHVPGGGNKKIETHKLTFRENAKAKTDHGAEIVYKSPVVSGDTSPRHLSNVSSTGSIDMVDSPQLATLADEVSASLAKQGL

Potency, active:
CCc1ccc(-c2cc(C(=O)NCc3ccco3)c3ccccc3n2)s1 28.2 µM
CCCNC(=O)Cn1sc2nc(C)cc(C)c2c1=O 15.8 µM
FC(F)(F)c1cccc(NC(=S)NCC2COc3ccccc3O2)c1 (centres undefined) 25.1 µM

Potency, inconclusive:
O=C(Nc1nc(-c2ccccc2)cs1)C1CCCCN1S(=O)(=O)c1ccccc1 (centres undefined) 15.8 µM [inhibitor, partial curve]
Cc1ccc(NC(=O)CCSc2nc(-c3ccco3)cc(C(F)(F)F)n2)cc1F 22.4 µM [inhibitor, partial curve]
O=C(COc1ccc(Cl)cc1)Nc1ccc(C(=O)OCc2cc(=O)n3ccsc3n2)cc1 3.98 µM [inhibitor, full curve]
CCNc1nc(SCC(=O)Nc2ccc(Cl)c(Cl)c2)nc(N(C)C)n1 3.55 µM [inhibitor, partial curve, poor fit]
CC(=O)NC(C(=O)O)C(C)(C)SN=O (centres undefined) 28.2 µM [inhibitor, single point]
O=C(CN1c2ccccc2Sc2ccccc21)NNC(=O)Nc1cccc(Cl)c1 2 µM [activator, full curve, poor fit]
Nc1nonc1-c1nc2ccccc2n1Cc1cccc(Cl)c1 10 µM [inhibitor, partial curve]
COc1ccc(Cl)cc1NC(=O)Cn1cc(C(=O)c2ccc(C)cc2)c(=O)c2ccc(C)nc21 44.7 µM [inhibitor, single point]
O=C(CN1c2ccccc2Sc2ccccc21)N/N=C/c1ccc(Cl)cc1Cl 12.6 µM [activator, partial curve, poor fit]
Cc1ccccc1Nc1nc(-c2ccccc2)c(C(=O)Nc2cccnc2)s1 44.7 µM [activator, single point]
O=C(O)CCCNc1cc(N2CCN(C3CCCCC3)CC2)c2noc3c2c1C(=O)c1ccccc1-3 39.8 µM [inhibitor, single point]
COC(=O)c1c(NC(C)=O)sc(Cc2ccccc2)c1C 0.631 µM [inhibitor, full curve, poor fit]
CC(=O)OCC1=C(C(=O)O)N2C(=O)C(NC(=O)CCn3nc(C)c(Cl)c3C)C2SC1 (centres undefined) 39.8 µM [inhibitor, single point]
CCSc1cnn(-c2ccccc2)c(=O)c1SCC 0.631 µM [inhibitor, single point]
CCN=C1S/C(=C\c2cc(OCC)c(O)cc2Br)C(=O)N1CC 2.82 µM [inhibitor, partial curve, poor fit]
CCCC(c1nnnn1Cc1ccco1)N1CCC(C(N)=O)CC1 (centres undefined) 8.91 µM [activator, single point]
COc1ccc(C2CC(=O)N3CN(c4ccccc4F)CSC3=C2C#N)cc1OC (centres undefined) 25.1 µM [inhibitor, partial curve]
OCCN1CCN(C(c2ccccc2Cl)c2sc3nc(-c4ccco4)nn3c2O)CC1 (centres undefined) 28.2 µM [inhibitor, single point]
COc1ccc(Cl)cc1C(=O)Nc1ccc(Br)c(C)n1 7.94 µM [inhibitor, single point]
Cc1ccc(-c2cc(-c3cccc(F)c3)n[nH]2)c(O)c1 31.6 µM [inhibitor, single point]
Cc1cc(Nc2cccc(Cl)c2)nc(NCc2ccccc2)n1 35.5 µM [inhibitor, single point]
Cc1ccc2nc(N3C(=O)CNC3=S)sc2c1 17.8 µM [inhibitor, partial curve]
O=C(Nc1cc2c(cc1C(=O)c1ccccc1Cl)OCCO2)c1ccccc1 17.8 µM [inhibitor, single point]
Cc1ccc(C(=O)Nc2ccccc2C(=O)NCc2ccccc2)cc1 39.8 µM [inhibitor, single point]
O=C(CC1Nc2ccccc2NC1=O)Nc1ccccc1NC(=O)CC1Nc2ccccc2NC1=O (centres undefined) 39.8 µM [inhibitor, single point]
COC(=O)N1[C@H](C)C=C[C@]1(Cc1ccccc1)C(=O)NCc1ccc(C)o1 25.1 µM [inhibitor, partial curve]
C/C=C/c1cc(CN2CCN(c3ccc(OC)cc3)CC2)c(O)c(OC)c1 39.8 µM [inhibitor, single point]
Cc1ccc(NC(=O)C2CCCN(S(=O)(=O)c3cn(C(C)C)cn3)C2)c(C)c1 (centres undefined) 7.94 µM [inhibitor, single point]
COc1ccccc1-c1noc(CCC(=O)Nc2ccc(C)cc2C)n1 25.1 µM [inhibitor, single point]
CC1CCC(Nc2nc3c(-c4cccc(C(F)(F)F)c4)nnn3c3ccccc23)CC1 (centres undefined) 5.62 µM [inhibitor, partial curve]

activity, negative = inhibition, inactive:
Cc1cc(C)c(C#N)c(OCC(=O)c2ccccc2)n1 0.281%
Cc1cc(C)nc(SCc2ccc(C(=O)NN=C3CCCC3)cc2)n1 5.63%
CCc1cc2c(=O)n(Cc3ccco3)c(SCC(=O)N(C)C3CCS(=O)(=O)C3)nc2s1 (centres undefined) 9.27%
CC1CC(C)(C)NCc2ccccc21 (centres undefined) -15%
O=[N+]([O-])c1ccccc1NC(=S)N/N=C/c1ccc(O)c(O)c1 2.42%
Cc1ccc(CSc2nnc(-c3ccc4c(c3)OCO4)o2)cc1 -12.3%
CCCS(=O)(=O)N1CC(=O)N(c2cc(C)ccc2C)C(C)(C(=O)NC2CCCCCC2)C1 (centres undefined) -2.56%
COc1cccc(NC(=O)Nc2cc(C(=O)O)ccc2C)c1 4.4%
CC(=O)c1ccc(Nc2cc(C)nc3nc(Cc4ccc(Cl)cc4)nn23)cc1 -13.4%
CCOC(=O)N1CCN(c2c(NCCc3ccc(C)cc3)c(=O)c2=O)CC1 -0.737%
Cc1ccc(C)c(N2CCN(C(=O)c3ccc4c(c3)N(Cc3ccc(F)cc3)C(=O)c3ccccc3S4=O)CC2)c1 (centres undefined) -6.1%
